Source: publication PMC6919601, “Identification of Plasmodium dipeptidyl aminopeptidase allosteric inhibitors by high throughput screening” (PLoS ONE, 2019)
Among all 110,000 compounds or so, about 230 (0.21%) showed an effect of 50% or more. The list shows a part of the results.

Biological target: DPAP1 (Plasmodium falciparum, UniProt Q8IIJ9)
Experiment: primary screen, percent inhibition; read by cleavage of a fluorogenic dipeptide substrate; higher = more effect of the substance
Design: species or system P. falciparum D10 trophozoite lysates; single well
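Also: 30 min substrate incubation versus DMSO and 10 µM JCP410 controls.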

Sequence of DPAP1 (Q8IIJ9 whole entry, looked up): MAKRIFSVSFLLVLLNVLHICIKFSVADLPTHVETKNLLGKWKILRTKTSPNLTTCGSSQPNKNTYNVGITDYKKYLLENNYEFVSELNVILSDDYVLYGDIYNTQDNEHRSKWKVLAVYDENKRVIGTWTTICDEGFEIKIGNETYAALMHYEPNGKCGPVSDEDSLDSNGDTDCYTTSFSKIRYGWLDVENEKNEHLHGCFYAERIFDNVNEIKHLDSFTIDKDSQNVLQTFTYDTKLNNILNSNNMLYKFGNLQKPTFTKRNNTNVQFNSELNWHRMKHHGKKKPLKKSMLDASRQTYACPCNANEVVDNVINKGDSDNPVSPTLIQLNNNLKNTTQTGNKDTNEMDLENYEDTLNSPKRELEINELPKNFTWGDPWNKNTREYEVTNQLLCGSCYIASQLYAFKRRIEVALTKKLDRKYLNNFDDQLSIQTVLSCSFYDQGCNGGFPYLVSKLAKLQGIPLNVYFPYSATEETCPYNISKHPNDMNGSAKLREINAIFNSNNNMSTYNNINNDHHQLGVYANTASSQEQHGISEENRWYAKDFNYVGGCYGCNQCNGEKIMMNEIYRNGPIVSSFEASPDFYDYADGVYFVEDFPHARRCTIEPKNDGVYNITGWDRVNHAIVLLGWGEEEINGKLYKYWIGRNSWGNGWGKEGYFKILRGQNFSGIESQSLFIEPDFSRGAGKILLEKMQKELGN

Structure (SMILES)	% Inhibition @ 10 uM
COc1nn2nnnc2c2ccccc12	0.947%
COc1ccc(C(=O)c2cccc([N+](=O)[O-])c2)cc1	-2.28%
CCOc1cccc(C(=O)Nc2nnc(CSCc3ccccc3)s2)c1	-0.142%
CCn1c(Oc2ccccc2)nc2c1c(=O)n(C)c(=O)n2C	1.08%
COc1ccc(C)cc1NC(=O)c1ccc(C(=O)Nc2cc(C)ccc2OC)nc1	0.661%
Cc1cc(C)c(S(=O)(=O)NCC(=O)Nc2ccc3c(c2)OCCO3)c(C)c1	6.57%
CCSC1=NSC2=NC(=O)/C(=C\c3ccc(-c4cccc(C(=O)O)c4)o3)C(=N)N12	4.06%
CCN(CC)c1nc(C)nc2ccccc12	2.25%
CCc1ccc(CN2CCCN(C)CC2)cc1	-3.87%
CCOc1cc2c(cc1/C=C1/NC(=O)N(CC(=O)Nc3ccccc3C)C1=O)OCO2	-1.96%
N#Cc1ccccc1COC(=O)c1cccnc1N	-2.05%
Cc1ccc(S(=O)(=O)c2nnn3c2nc(N)c2cc(Cl)ccc23)cc1C	7.82%
CNC(=S)NC1(C)CCS(=O)(=O)C1 (centres unmarked)	0.884%
O=C(CCC(=O)N1CC2CC(C1)c1cccc(=O)n1C2)NCc1cccs1 (centres unmarked)	-7.02%
Cc1ccc(-c2cc(C(=O)NCCCn3ccnc3)c3ccccc3n2)o1	3.92%
CCCc1ccc(OCC(=O)Nc2ccc(CC#N)cc2)cc1	-3.34%
CN1C(=O)COc2ccc(C(=O)c3ccccc3C(=O)O)cc21	-2.21%
Cc1oc2c(c1C(=O)NCC1CCCO1)C(=O)c1ccccc1C2=O (centres unmarked)	1.91%
COc1cc2nc(N3CCN(Cc4ccccc4)CC3)n3nc(-c4ccccc4)nc3c2cc1OC	4.16%
CC(NC(=O)CSc1ccccn1)c1ccccc1 (centres unmarked)	-1.44%
N#Cc1ccc(-c2ccc3c(c2)OCO3)nc1SCC(=O)Nc1ccc(F)c(F)c1	5.64%
CCN(C(=O)COc1ccccc1C)c1ccccc1	4.74%
O=C(Nc1ccc(Cl)cc1C(=O)NCCN1CCOCC1)c1ccc(Cl)cc1Cl	-1.27%
C=CCSc1nc2sc3c(c2c(=O)n1C1CCCCC1)CC(C)(C)OC3	3.32%
Cc1oc(-c2ccccc2F)nc1CN1CCC(C(=O)NC(C)C)CC1	-4.71%
COc1ccc(C(=O)N2c3ccccc3C(Nc3ccccc3)CC2C)cc1 (centres unmarked)	-2.24%

Structure (SMILES)	% Inhibition @ 10 uM
COc1ccc([N+](=O)[O-])cc1NC1CCC(c2ccccc2)CC1 (centres unmarked)	3.44%
COc1ccc(CCNC(=O)c2cc(O)nc3ccc(Br)cc23)cc1OC	-0.0542%
O=C(CCNS(=O)(=O)c1ccc(Br)cc1)NCc1ccc(Cl)cc1	5.99%
O=C(Nc1nccs1)C(Cc1ccccc1)N1Cc2ccccc2C1=O (centres unmarked)	3.87%
O=C(CCN1CCOCC1)NCC(=O)Nc1ccc(Br)cc1C(=O)c1ccccc1	-2.94%
O=C(O)CCC(=O)Nc1ccccc1C(=O)N1CCC(O)(c2ccc(Cl)cc2)CC1	-0.95%
CCCNC(=O)C1CCN(c2nnc(C)c3c(C)n(-c4ccc(OC)cc4)nc23)CC1	4.54%
COc1nc(-c2ccccc2)cc(-c2cnc(OC)nc2OC)n1	-1.74%
CCCN1C(=O)c2ccc(F)cc2C1=O	2.58%
COc1ccc(OC)c(NC(=O)c2cc(-c3ccc(C)o3)nc3ccccc23)c1	4.39%
Cc1ccc2c(c1)c1c3n2CCCNC3CCC1 (centres unmarked)	-0.197%
FC(F)(F)c1ccc(CN2CCN(c3ccc(Cl)cc3)CC2)cc1	0.708%
COc1cccc(/C=C2\CCCC3=C2Nc2ncnn2C3c2cccc(OC)c2OC)c1OC (centres unmarked)	-1.62%
CN1C(=O)C(C(=O)O)[C@@H]2c3ccccc3O[C@]13CCC[C@H]23 (some centres unmarked)	0.13%
CCc1nnc(C(=O)[C@H](CC)NC(=O)[C@H](CS(=O)(=O)Cc2ccccc2OC(F)F)/N=C(\C)NS(=O)(=O)c2ccccc2)o1	-1.5%
CCOc1cc(C2CC(=O)NC(C)=C2C(=O)OC)cc(Br)c1OC (centres unmarked)	-2.87%
O=C(O)CCCC(=O)Nc1nc(-c2ccc3ccccc3c2)cs1	2.38%
CC(C)Sc1nnc(NC(=O)C(=O)c2c[nH]c3ccccc23)s1	2.32%
Cc1ccc(C(=O)N/C(=C\c2cccs2)C(=O)Nc2ccc3c(c2)OCO3)cc1C	-0.968%
CC(=O)c1ccc2[nH]c(C(=O)O)c(CCN)c2c1	6.24%
COc1ccc(NC(=O)CSc2nc3c(c(C(F)(F)F)c2C#N)CCC3)c(OC)c1	-2.83%
Cc1ccc(OCCCCCN2CCOCC2)c(Cl)c1	2.22%
NC(=O)c1c(NC(=O)c2cccc3ccccc23)sc2c1CCCCC2	31.8%
CC(C)CCn1c(C(O)c2ccccc2)nc2ccccc21 (centres unmarked)	-1.15%
Oc1ccc2cc3c4cc(Br)ccc4nc-3oc2c1O	1.72%
CC1(C)CC(=O)C2=C(C1)N(c1ccc(Br)cc1)C(N)=C(C#N)C2c1cccnc1 (centres unmarked)	0.385%

Structure (SMILES)	% Inhibition @ 10 uM
CCN1CCN(C(=O)c2csc3c2CCCCC3)CC1	3.54%
CCC(C)c1ccc(NC(=O)COc2ccccc2)cc1 (centres unmarked)	-2.3%
COc1cc(/C=C2/SC(=N)N(c3ccccc3F)C2=O)ccc1O	3.29%
COCCN1C(=O)c2[nH]nc(-c3ccccc3O)c2C1c1ccc(C(C)C)cc1 (centres unmarked)	5.17%
N#CC1=C(N)S[C@@H](C(=O)c2ccc(Br)cc2)[C@@H]1c1cccs1	-5.79%
COc1cccc(C(=O)COc2cccc(NC(=O)c3ccc(C)cc3)c2)c1	11%
CCn1ncc(Br)c1C(=O)NC(C)C1CC2CCC1C2 (centres unmarked)	-4.16%
C=CCN1CC(=O)C(c2nc3ccccc3s2)=C1N	-1.22%
Cc1[nH]c2ccc(C(=O)N3CCC4(CC3)OCCO4)cc2c1C	0.399%
CC(NC(=O)C1C(=O)N(CCO)C2(C)CC1c1ccccc1O2)c1ccccc1 (centres unmarked)	-7.23%
CCOc1ccc(-n2c(SCC(=O)NC(C)CC)nc3nnc(C)c-3c2N)cc1 (centres unmarked)	8.71%
COc1cc2c(cc1OC)CN(C(=O)CSc1nc3c(cc1C#N)CCCC3)CC2	2.68%
Cc1c(Nc2ccc([N+](=O)[O-])c3nonc23)c(=O)n(-c2ccccc2)n1C	1.38%
CCn1c(C(=O)O)c(CNCCc2ccc(Cl)cc2)c2ccc(C)cc21	2.6%
CN1CC(c2ccccc2)=Cc2c1ccc1nonc21	3%
Clc1ccc(-c2csc(NCc3ccco3)n2)cc1	1.4%
O=C(Nc1ccc2c(c1)OCO2)c1ccccc1F	1.96%
CCN(CC)C(=O)c1ccc(C(=O)c2ccccc2)cc1	3.95%
OCCc1ccc(OCc2cccc3c2N=S=N3)cc1	-6.05%
CC(C)Cn1cc(NC(=O)N2CCN(c3ccccn3)CC2)c2ccccc2c1=O	4.42%
CCOC(=O)NCc1ccc2[nH]c(C)cc2c1	-1.89%
COC(=O)C1=C(C)N(CCc2ccc(OC)cc2)C(=O)/C1=C\c1cc(C)n(-c2ccc(F)cc2)c1C	1.63%
OC1=C2C(=Nc3ncnn3C2c2ccc(F)c(Br)c2)CCC1 (centres unmarked)	-1.62%
O=C1c2cccnc2C(=O)N1Cc1ccco1	0.66%
Cc1cnc(NC(=O)c2cn(-c3ccccc3)nc2-c2ccccc2)s1	-2.84%
CN(C)CCCNC(=O)/C(=C\c1ccco1)NC(=O)c1ccccc1	2.59%

Structure (SMILES)	% Inhibition @ 10 uM
O=C(O)CCC(=O)N1N=C(c2cccs2)CC1c1ccccc1 (centres unmarked)	-10.8%
O=C1NCCCC[C@@H]1Nc1ncccn1	-2.97%
COc1ccc(N2C(N)=C(C#N)C(c3ccc(OC)c(OC)c3)C3=C2CCCC3=O)cc1 (centres unmarked)	5.9%
O=C(C1CC(c2ccccc2F)=NO1)N1CCOCC1 (centres unmarked)	2.85%
CN(CC(=O)NCCc1ccc(Cl)cc1)S(=O)(=O)c1ccc2[nH]c(-c3ccccc3)nc2c1	-2.57%
CCOc1ccc(/C=C/c2nc(C#N)c(NCc3ccc(C)cc3)o2)cc1	-6.29%
Cc1ccc(C)c(-c2csc(Nc3cccc(C(F)(F)F)c3)n2)c1	-4.04%
O=C(Nc1ccccc1C#Cc1ccccc1)c1cccnc1	-1.96%
COc1ccc(/C=C/c2ccccn2)cc1	4.51%
COc1cc(CN(CCN(C)C)Cc2ccccc2)cc(OC)c1	1.08%
COc1ccc(-c2[nH]nc3c2C(c2cccc(O)c2)N(C)C3=O)cc1 (centres unmarked)	-1.29%
Cc1ccc(C)c(OCC(=O)Nc2ccc(S(=O)(=O)Nc3nc(C)cc(C)n3)cc2)c1	-0.891%
COC(=O)c1c(N)n(C(C)c2ccccc2)c2nc3ccccc3nc12 (centres unmarked)	-7.23%
CCOC(=O)c1cnc2ccc3ccccc3c2c1O	-2.48%
COc1cccc2c3c(c[n+](C)c12)sc1ccc(F)cc13	5.05%
CCCSc1nnc(NC(=O)C(=O)c2cc(C)n(CCOC)c2C)s1	-2.84%
C=CCO/C(O)=C1/C(C)=Nc2nc3ccccc3n2C1c1ccc(OC)cc1OC (centres unmarked)	4.86%
CCC(Oc1ccccc1)C(=O)Nc1ccc(C)cc1C (centres unmarked)	2.03%
O=C(Nc1ccc2oc(-c3cccc(F)c3)nc2c1)c1cccc(F)c1	10.6%
CN(C)/C(Cc1ccccc1)=N\c1ccccc1C#N	-0.13%
O=c1c(-c2ccccc2)c(C(F)(F)F)oc2c(CN3CCCC3)c(O)ccc12	-0.473%
O=C(/C=C/c1ccccc1Cl)NC1CCCCC1	-3.94%
C=C(C)COc1ccc2cc(-c3nc4ccccc4s3)c(=O)oc2c1	6.22%
